Laboratory results from publication PMC4336329 (PLoS ONE, 2015).
Out of some 310,000 compounds screened, about 14,000 (4.5%) showed an effect of 50% or more. The effect is printed as a negative number. The list shows a part of the results.

Each molecule was assayed against human ether-à-go-go-related gene (hERG) potassium channel (human, UniProt Q12809) (assay: primary screen, population patch clamp on CHO cells stably expressing hERG).
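Also: peak tail current of the secondary pulse compared with the same well before compound.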

Chain of human ether-à-go-go-related gene (hERG) potassium channel (Q12809 whole entry, looked up): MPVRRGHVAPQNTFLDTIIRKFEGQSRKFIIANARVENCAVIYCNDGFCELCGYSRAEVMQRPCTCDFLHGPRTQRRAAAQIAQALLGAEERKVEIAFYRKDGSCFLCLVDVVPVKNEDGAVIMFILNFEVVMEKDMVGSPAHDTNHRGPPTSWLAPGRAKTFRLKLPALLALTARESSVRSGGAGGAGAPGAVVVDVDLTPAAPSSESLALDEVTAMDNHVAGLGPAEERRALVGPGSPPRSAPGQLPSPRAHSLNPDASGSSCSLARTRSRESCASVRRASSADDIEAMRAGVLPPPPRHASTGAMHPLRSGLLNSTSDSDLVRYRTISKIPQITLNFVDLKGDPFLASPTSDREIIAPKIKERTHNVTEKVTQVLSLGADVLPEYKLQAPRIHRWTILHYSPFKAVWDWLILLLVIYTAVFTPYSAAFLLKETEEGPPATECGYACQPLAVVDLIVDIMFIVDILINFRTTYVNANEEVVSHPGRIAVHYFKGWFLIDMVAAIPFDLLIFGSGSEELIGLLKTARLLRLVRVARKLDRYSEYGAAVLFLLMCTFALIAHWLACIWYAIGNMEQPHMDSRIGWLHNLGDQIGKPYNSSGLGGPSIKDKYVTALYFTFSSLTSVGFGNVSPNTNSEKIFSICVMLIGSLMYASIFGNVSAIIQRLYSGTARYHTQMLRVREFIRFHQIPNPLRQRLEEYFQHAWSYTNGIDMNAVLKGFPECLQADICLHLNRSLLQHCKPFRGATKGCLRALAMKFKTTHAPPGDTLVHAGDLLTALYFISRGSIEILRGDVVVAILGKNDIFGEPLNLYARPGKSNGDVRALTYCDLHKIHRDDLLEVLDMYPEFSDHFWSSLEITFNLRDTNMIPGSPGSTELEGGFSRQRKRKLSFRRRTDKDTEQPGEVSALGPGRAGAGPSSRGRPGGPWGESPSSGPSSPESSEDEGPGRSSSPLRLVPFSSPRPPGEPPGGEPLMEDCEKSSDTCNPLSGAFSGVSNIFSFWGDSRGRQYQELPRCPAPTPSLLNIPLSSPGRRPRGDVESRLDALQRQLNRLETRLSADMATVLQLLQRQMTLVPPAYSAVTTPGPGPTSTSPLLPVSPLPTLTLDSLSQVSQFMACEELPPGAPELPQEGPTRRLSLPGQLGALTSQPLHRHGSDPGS

Compound | hERG current change (%, negative = inhibition) at 10uM [%]
COC(=O)c1ccc(C[n+]2ccccc2)cc1.[Br-] | 17.3
COc1ccc(S(=O)(=O)NC(CCSC)C(=O)NC2CCCCC2)cc1 (stereo not shown) | 18.1
COc1cc(C(=O)NCCC(=O)NCc2c(F)cc(F)cc2F)cc(OC)c1OC | 12.9
Cc1ccc(SCc2cc(=O)[nH]c(Nc3nc(C)c4ccc(C)cc4n3)n2)cc1 | -20.4
CCCCC1C(=O)NC(=S)NC1=O | 2.83
C=CCN1C(=O)S/C(=C\c2ccc3c(c2)n(C)c(=O)n3C)C1=O | 5.81
Cc1cc([N+](=O)[O-])nn1CC(=O)c1ccccc1 | 11.8
CCOC(=O)C1CCN(C(=O)c2ccc(C)c(S(=O)(=O)N3CCCC3)c2)CC1 | 0.26
Cc1ccc(NC(=O)COC(=O)CSCC(=O)Nc2cc(C)on2)c(C)c1 | -17.9
COc1ccc(C(=O)CSc2nnc(-c3cccs3)n2-c2ccccc2)cc1 | 4.83
CC(=O)NC(Cc1ccc(F)cc1)C(=O)NC1CCN(c2nnnn2-c2ccccc2)CC1 (stereo not shown) | -41
COc1cccc(/C=N/NC(=O)CNC(=O)c2cccnc2)c1O | 22.9
CCOc1ccc2c(c1)c(N=Nc1cccc(C(=O)O)c1)c(O)n2C | 3.19
CC1CCCC(C)N1c1nnc(NC(=O)c2cc(-c3ccc(Br)cc3)on2)s1 (stereo not shown) | -5.29
CS(=O)Cc1cc(Sc2ccccc2)nc(-c2cccnc2)n1 (stereo not shown) | -20.4
O=C(NCc1ccncc1)Nc1ccccc1Cl | 5.67
O=C(O)CCN1C(=O)c2ccc(NC(=O)CCc3ccccc3)cc2C1=O | 16.6
CC(Sc1nc2ccccc2s1)C(=O)NCc1ccc2c(c1)OCO2 (stereo not shown) | -13.7
COc1ccc(C(=O)N2CCSCC2)cc1OC1CCN(C(C)=O)CC1 | 12
CCOC(=O)c1ccc(NC(=O)C(C)NS(=O)(=O)c2ccc(OC)cc2)cc1 (stereo not shown) | 4.16
COc1ccc(C(=O)CN2C(=O)NC3(CCCCCC3)C2=O)c(OC)c1 | -12.2
CC(C)c1cc(Br)ccc1OCCN1C(=O)NC(C)(C)C1=O | -7.82
O=C(Nc1ccccc1C(F)(F)F)c1ncn[nH]1 | 10.9
COc1ccc(-n2cc(CNC3CCN(C)CC3)c(-c3cccc(F)c3)n2)cc1 | -77.5
Cc1ccccc1CNC(=O)CCC(=O)N1Cc2ccccc2Oc2ncccc21 | -25.9
